Drawing on PubChem BioAssay AID488969 (Vanderbilt High Throughput Screening Facility, 2010), this text covers z-score for 111 molecules.

Each structure is given as a SMILES string. Over roughly 110,000 compounds, “z-score” has its median near -0.1; the highest 2% begin near 2. This is one part of the list. Calls of active or inactive are those of the source.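 How the source made its calls: active means z-score in the third read window above 3 or below -3; inactive means the rest.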

The target in this assay is Metabotropic glutamate receptor 8 (Rattus norvegicus) (UniProt P70579). The experiment in a line: rat mGluR8 modulators via GIRK flux, primary screen, cell-based, thallium flux, HTS (AID 488969). As to conditions: HEK293 rat mGluR8, GIRK (G protein-gated inwardly rectifying potassium channel) thallium flux, FluoZin2; at 10 µM; stronger effect = higher value; submaximal glutamate (EC20) added with thallium.
UniProt P70579, sequence (P70579 whole entry, looked up): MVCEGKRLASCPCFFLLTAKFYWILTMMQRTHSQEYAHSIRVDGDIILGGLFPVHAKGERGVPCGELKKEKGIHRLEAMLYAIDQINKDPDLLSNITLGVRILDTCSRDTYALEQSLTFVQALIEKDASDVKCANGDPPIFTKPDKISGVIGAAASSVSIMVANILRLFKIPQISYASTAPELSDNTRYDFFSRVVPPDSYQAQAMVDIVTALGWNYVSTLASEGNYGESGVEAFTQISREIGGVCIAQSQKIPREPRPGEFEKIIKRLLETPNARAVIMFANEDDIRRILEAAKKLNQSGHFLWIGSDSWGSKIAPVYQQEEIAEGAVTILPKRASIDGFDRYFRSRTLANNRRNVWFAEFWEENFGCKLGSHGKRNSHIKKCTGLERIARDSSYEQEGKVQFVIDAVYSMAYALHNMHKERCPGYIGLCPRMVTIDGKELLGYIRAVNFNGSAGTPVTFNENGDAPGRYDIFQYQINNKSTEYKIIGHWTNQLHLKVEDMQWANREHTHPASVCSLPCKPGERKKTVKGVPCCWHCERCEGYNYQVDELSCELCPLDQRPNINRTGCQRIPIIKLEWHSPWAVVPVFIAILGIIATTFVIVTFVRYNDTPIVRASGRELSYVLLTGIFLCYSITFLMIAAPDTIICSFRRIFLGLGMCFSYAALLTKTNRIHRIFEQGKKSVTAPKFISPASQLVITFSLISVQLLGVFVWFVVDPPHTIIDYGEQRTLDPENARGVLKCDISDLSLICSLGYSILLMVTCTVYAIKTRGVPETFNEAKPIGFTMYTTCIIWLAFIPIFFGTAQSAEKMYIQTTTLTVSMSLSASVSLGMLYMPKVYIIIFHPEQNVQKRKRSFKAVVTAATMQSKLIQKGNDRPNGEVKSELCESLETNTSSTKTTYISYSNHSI
The molecule `CC(C(=O)Nc1nccs1)N1C(=O)C2CC=CCC2C1=O` (stereo unspecified) had a z-score of -0.237.

The molecule `CN(C)S(=O)(=O)c1cc([N+](=O)[O-])ccc1N1CCCCCC1` came in with a z-score of -0.497.

The molecule `CCOC(=O)c1sc(NC(=O)CSc2nc(-c3ccco3)cc(C(F)(F)F)n2)c(C(=O)OC(C)C)c1C` yielded a z-score of -0.257.

`CN(C)S(=O)(=O)c1cccc(-c2nn(-c3ccccc3)cc2/C=C2\SC(=S)NC2=O)c1` came in with a z-score of -0.225.

`O=C(Cn1cnc2ccccc2c1=O)c1ccc2ccccc2c1`: the z-score stood at 0.873.

For the molecule `Cc1nc(SCC(=O)c2cc3ccccc3oc2=O)c(C#N)c(C)c1C(=O)Nc1ccccc1`, the z-score is -0.21.

Molecule `O=C(CSc1nc(N2CCCCC2)nc(N2CCCCC2)n1)Nc1nccs1` returned a z-score of -0.0454.

With `Cc1ccc(C2CC(c3ccccc3)=NN2C(=O)CSc2nnc(-c3ccc(Cl)cc3)o2)o1` (stereo unspecified), the z-score came out at 0.544.

Turning to `Clc1ccc(CN2CCC(c3nc4ccc(Cl)cc4[nH]3)CC2)cc1`, the z-score was determined as 1.42.

For the molecule `Cn1c(=O)[nH]c(=O)c2c1nc(Br)n2CCOc1ccccc1`, the z-score was determined as 0.099.

Consider `N#C/C(=C/c1ccc(Sc2nc3ccccc3[nH]2)o1)c1cccc(F)c1`, for which the z-score is -0.345.

In the case of `CC1CCCC(NC(=S)Nc2ccc(SC(F)F)cc2)C1C` (stereo unspecified), the z-score is active: 4.36.

Turning to `COc1ccc(N(CC(=O)NCCSC2CCCCC2)S(C)(=O)=O)c(OC)c1`, the z-score was found to be 0.06.

`COCCCn1c(=O)/c(=C\c2ccccc2OC(F)F)s/c1=C(/C#N)C(=O)NC(C)C` gave a z-score of -0.195.

For the molecule `O=C(NC1CCCCC1)c1ccc(S(=O)(=O)N2CCCCC2)cc1`, the z-score stood at 0.145.

`COC(=O)c1ccccc1N/C=C1\CCc2c(c(C)nn2-c2ccccn2)C1=O` came in with a z-score of -0.171.

Turning to `CC(C)CCNc1nc(-c2ccco2)c2c(c1C#N)CCCC2`, the z-score is -0.366.

Regarding `O=C(CC(=O)NC1CCCCC1)N/N=C/c1ccc(Cl)cc1`, the z-score is -0.256.

As for `CCOC(=O)N1CCN(C(=O)CCSCCc2ccncc2)CC1`, the z-score stood at 1.49.

The molecule `CCOC(=O)c1c(NC(=O)CSc2nnc(-c3cccnc3)o2)sc(C)c1C` yielded a z-score of -0.348.

Consider `Oc1c(Cl)cc(Cl)cc1C=Nc1ccc(Br)cc1`, for which the z-score is -0.479.

As to `COc1cc(/C=C2/C(=O)c3cccc([N+](=O)[O-])c3C2=O)c(Br)cc1O`, the z-score was -0.984.

The molecule `Cc1cc(C)n2nc(C(=O)NCc3ccccc3)cc2n1` registered a z-score of 0.128.

`COc1cc(C2C(C#N)=C(N)Oc3cc(O)ccc32)cc(OC)c1OC` (stereo unspecified) showed a z-score of 0.00968.

As for `COc1cc2c(cc1NC(=O)c1cccc([N+](=O)[O-])c1)oc1ccccc12`, the z-score came out at 0.178.

Molecule `CC(C)(C)NCC(O)COc1ccccc1C(=O)CCc1ccccc1` (stereo unspecified) yielded a z-score of 1.13.

The molecule `CCOC(=O)CSc1nc(NC#N)nc(N(CC)CC)n1` showed a z-score of -1.36.

The molecule `O=C(Nc1cccnc1)c1cc2nc(C3CC3)cc(C(F)(F)F)n2n1` displayed a z-score of -0.178.

With `COc1ccc(CC(=O)Nc2ccc(-c3cn4ccccc4n3)cc2)cc1`, the z-score was -0.938.

For `O=C(c1cccc(F)c1)N1CCN(C(=O)c2cc(-c3ccc(Cl)cc3Cl)on2)CC1`, the z-score was active: 3.48.

In the case of `O=C(NCc1ccccc1)NC1CCCCC1`, the z-score is -0.555.

For `COc1cccc2c1NC(C(=O)O)C1CC=CC21` (stereo unspecified), the z-score was -0.511.

In the case of `CN1CCN(CCC(=O)Nc2ccc(F)c(F)c2)CC1`, the z-score worked out at 0.743.

The molecule `CCCCn1nc(-c2ccccc2)c2nc3ccccc3nc21` displayed a z-score of -0.013.

On to `Cc1cc(C)c(NC(=O)COc2ccccc2C(=O)Nc2ccc3c(c2)oc2ccccc23)c(C)c1`, for which the z-score worked out at 1.61.

As to `CCOCCCNC(=O)CN1C(=O)C(CC)Oc2ccccc21` (stereo unspecified), the z-score came out at 0.522.

In the case of `Cc1ccccc1C1NS(=O)(=O)N=C1N` (stereo unspecified), the z-score is 0.553.

Regarding `O=C(CCn1nc(-c2ccc(Cl)cc2)c2ccccc2c1=O)NCCN1CCOCC1`, the z-score was -0.0201.

As to `COc1cc(C(=O)NCc2nnc(SCC(=O)Nc3cccc(C)c3)o2)cc(OC)c1OC`, the z-score is 0.436.

`O=C(CN1CCSCC1)N/N=C/c1ccc(F)cc1` had a z-score of 0.536.

For the molecule `O=C(NCCNS(=O)(=O)c1cccc(C(F)(F)F)c1)c1cc(OCC(F)(F)F)ccc1OCC(F)(F)F`, the z-score worked out at 0.133.

`Nn1c(-c2ccccc2Cl)nnc1-c1ccccc1Cl`: the z-score was determined as 0.847.

Turning to `CCN(CC)CCOC(c1ccccc1)c1ccc(C)cc1` (stereo unspecified), the z-score came to 0.172.

In turn, `Cc1noc(C)c1C(=O)NCc1cccs1` gave a z-score of -0.0943.

For the molecule `CCc1nnc(NC(=O)CSc2nnc(CSc3nc(C)cc(C)n3)n2CC)s1`, the z-score amounted to 0.273.

Molecule `Cc1ccc(Oc2nnc(-c3ccccc3)cc2C#N)cc1` returned a z-score of -0.198.

Regarding `N#CC1(c2ccccc2)CCC(=NO)CC1` (stereo unspecified), the z-score was -0.222.

`Cc1ccc(CNC(=O)Cc2cccs2)cc1`: the z-score was found to be 0.00768.

As for `CC1CCc2sc(C(=O)NCc3ccc(F)cc3)cc2C1` (stereo unspecified), the z-score was -0.239.

Turning to `Cc1nn(Cc2ccccc2Cl)c2sc(C(=O)NCCCn3ccnc3)cc12`, the z-score was -0.16.

Molecule `C(=N/n1c2ccccc2c2ccccc21)/c1ccco1` displayed a z-score of -0.375.

`S=C(NCc1cccs1)Nc1cccc(Cl)c1Cl`: the z-score amounted to 1.24.

With `CC1CCN(c2c([N+](=O)[O-])c(=O)oc3ccccc23)CC1`, the z-score is -2.23.

Consider `O=C1CN(C(=O)OCc2ccccc2)c2ccccc2N1`, for which the z-score was -0.224.

`COCCn1c(SCC(=O)Nc2nc3ccccc3s2)nnc1-c1ccoc1C`: the z-score is -1.07.

With `O=C(Nc1cccc(NC(=O)c2ccco2)c1)c1ccc2c(c1)OCO2`, the z-score was -0.486.

The molecule `COc1ccc(C(=O)N/N=c2\oc3ccccc3cc2C(=O)NCc2ccccc2)cc1` registered a z-score of 0.152.

Regarding `O=C1Nc2c(c(=O)[nH]c(=O)n2-c2ccccc2F)C(C(F)(F)F)(C(F)(F)F)N1`, the z-score is -0.0774.

The molecule `COc1cccc(NC(=O)c2nc3ncccn3n2)c1` had a z-score of -0.0396.

`O=C(O)c1cc(N/N=C2/CC(c3ccccc3)Oc3ccccc32)ccc1Cl` (stereo unspecified) registered a z-score of 0.1.

With `CCOC(=O)C(=O)Nc1cc(Cl)ccc1C`, the z-score was -1.78.

As for `O=C(CN1CCN(Cc2ccccc2)CC1)NCC1COc2ccccc2O1` (stereo unspecified), the z-score was 0.105.

Molecule `Nc1nc(SCc2ccc3c(c2)OCO3)n[nH]1` registered a z-score of -0.166.

The molecule `Cc1cc(C(F)(F)F)nn1C(=O)c1cccnc1Cl` yielded a z-score of 0.239.

`CCOc1ccc(C)cc1S(=O)(=O)n1ccnc1` registered a z-score of 0.0478.

Regarding `CCOc1ccc(N(CC(=O)NC(C)CC)S(C)(=O)=O)cc1` (stereo unspecified), the z-score is -0.296.

In the case of `CCC(C)NC(=O)Nc1ccccc1F` (stereo unspecified), the z-score was 1.53.

Molecule `CCCc1cc(C(=O)Cc2ccc(C(=O)OCC)o2)c(O)cc1O` returned a z-score of -1.74.

Take `CCn1c(Cc2ccc(OC)cc2)nnc1SCC(=O)Nc1cccc(C(=O)OC)c1`: the z-score is -1.43.

As to `CNC(=S)N(Cc1ccc(OC)cc1)C1CC(=O)N(c2ccc(OC)cc2)C1=O` (stereo unspecified), the z-score was -0.0408.

`COc1ccc(C(=O)Nc2ncc3c(n2)-c2ccccc2CC3)cc1`: the z-score was -0.247.

`CN1C(=O)N2CN(C3CCCCC3)CN3C(=O)N(C)C1C23` (stereo unspecified) registered a z-score of -0.275.

With `Cc1ccc(-c2ccc(/C=N\NC(=O)c3cc4c(ccc5ccccc54)o3)o2)cc1[N+](=O)[O-]`, the z-score turned out to be 0.0202.

In turn, `COc1ccc(S(=O)(=O)N2CCN(CC(=O)Nc3ccc(C)c(F)c3)CC2)cc1` had a z-score of -0.257.

As to `CC(=O)c1ccc(N2CCN(C(=S)Nc3cccc(F)c3)CC2)cc1`, the z-score was -0.0609.

In the case of `CCOc1ccc2nc(NC3=NCN(CC4CCCO4)CN3)nc(C)c2c1` (stereo unspecified), the z-score is -0.318.

In turn, `CSc1nsc(SCC(=O)Nc2nc3ccccc3s2)n1` registered a z-score of 0.127.

For the molecule `Cc1ccc(-c2nc(=S)c3c(n2Cc2ccco2)CC(C)(C)OC3)cc1`, the z-score worked out at 1.54.

For the molecule `Cc1c(Cl)cccc1N1CC(C(=O)Nc2nccs2)CC1=O` (stereo unspecified), the z-score was -0.53.

Molecule `CCCCn1nc2cc(C(=O)NC3CCCc4ccccc43)ccc2c1OCC` (stereo unspecified) returned a z-score of -0.297.

Consider `Cc1cc(C)cc(NC(=O)C2(c3cccs3)CCOCC2)c1`, for which the z-score was 0.819.

With `CCOc1cc(C(=O)OCC(=O)Nc2cccc(C)c2)ccc1OCC(=O)N1CCOCC1`, the z-score is -0.136.

Take `CCN(CC)S(=O)(=O)c1cccc(NC(=O)/C=C/c2cccc([N+](=O)[O-])c2)c1`: the z-score is 0.26.

`Cc1ccc2c(c1)C(c1ccc(F)cc1)N(C(=O)C1CC1)CC(=O)N2` (stereo unspecified) showed a z-score of 2.06.

Consider `CCCC(=O)c1ccc(N2CCCC2)c(F)c1`, for which the z-score was -0.0859.

Turning to `C/C(Cl)=C/CSc1nc2c(c(=O)[nH]c(=O)n2C)n1C(C)C`, the z-score turned out to be 0.133.

For the molecule `CNC(=O)c1nnn(Cc2ccccc2)c1NC(C)=O`, the z-score is -0.133.

`COc1ccc(OC)c(C(c2nnnn2CCc2ccccc2)N2CCC(C(N)=O)CC2)c1` (stereo unspecified) gave a z-score of -0.0793.

Regarding `Cn1c(NC(=O)c2ccco2)cc(=O)n(C)c1=O`, the z-score is -0.188.

The molecule `CCOC(=O)C(C(=O)Nc1ccc(C)cc1)C1CCCCC1` (stereo unspecified) gave a z-score of -0.104.

`Cc1nc2cc(N3CCCCC3)c(NC(=O)c3ccncc3)cc2c(=O)n1Cc1ccc(Cl)cc1` displayed a z-score of -0.37.

On to `CCOC(=O)c1cnc(SCC(=O)Nc2nnc(CC)s2)nc1N`, for which the z-score stood at 0.763.

With `Cc1cc(N(CC(=O)O)S(C)(=O)=O)ccc1Br`, the z-score was -0.273.

With `Cc1n[nH]c(C)c1S(=O)(=O)N(CC(=O)NC1CCCC1)c1ccc(C(C)C)cc1`, the z-score is -0.141.

In the case of `Cc1ccccc1Nc1nc(N)nc(COC(=O)CC2CC3CCC2C3)n1` (stereo unspecified), the z-score was -0.47.

Consider `Cc1[nH]c2ccccc2c1CCNC(=O)c1ccc2c(c1[N+](=O)[O-])C(=O)c1ccccc1C2=O`, for which the z-score was -0.301.

`Cc1ccc(S(=O)(=O)N2CCN(C(=O)CN3CCCC3)C2)cc1`: the z-score is -0.333.

In the case of `CCCCCC1CCC(C(=O)O)CC1` (stereo unspecified), the z-score is -0.0769.

`CCN(CC)S(=O)(=O)c1ccc(N2CCOCC2)c(NC(=O)C23CC4CC(CC(Cl)(C4)C2)C3)c1`: the z-score was -0.227.

Consider `O=C(COC(=O)c1c2c(nc3ccccc13)/C(=C\c1cccs1)CCC2)Nc1ccccc1Cl`, for which the z-score was 0.194.

Molecule `O=C(Nc1cc2c(cc1Cl)OCCO2)c1ccco1` had a z-score of -0.227.

With `C=CCOc1cccc(C2C(C(=O)c3ccc(C)o3)=C(O)C(=O)N2CCN(C)C)c1` (stereo unspecified), the z-score is -0.0156.

Molecule `CCOC(=O)c1nn(-c2cccc(Cl)c2)c(C)c1C(C)=O` gave a z-score of -0.154.

For `Cc1cccc(NC(=S)NNC(=O)CC(C)O)c1C` (stereo unspecified), the z-score was -0.263.

Molecule `O=c1[nH]c(CSc2nnc(COc3ccccc3)n2-c2ccccc2)nc2ccccc12` came in with a z-score of -0.443.

On to `COc1ccc(CC(=O)Nc2sc(Cc3ccccc3)c(C)c2C(N)=O)cc1`, for which the z-score was -0.16.

For the molecule `O=S(=O)(NC1c2cccc3cccc(c23)C1Sc1ncccn1)c1ccccc1` (stereo unspecified), the z-score stood at 0.0513.

The molecule `O=C(CNC1=NCCC1)c1ccc(Cl)cc1` came in with a z-score of -0.159.

The molecule `COc1ccc(N/C=C(/C(C)=O)c2ccccc2)cc1` gave a z-score of -0.164.

`O=C(Nc1nc2c(Cl)ccc(Cl)c2s1)c1ccco1` returned a z-score of 1.81.

`O=C(N/N=C/c1ccccc1[N+](=O)[O-])c1ccc(COc2ccccc2-c2ccccc2)cc1` came in with a z-score of -0.281.
